This list was built around the results that the source calls inconclusive (neither active nor inactive); the mix of calls is not that of the screen. No potency is given beside an inconclusive call; the fits are too rough. Activity calls are given as the source filed them. Calls follow the shape of the dose curve; as a rule, active = well fitted curve in the direction sought with a large enough effect; inconclusive = small, poorly fitted or top-dose-only effect, or another doubt; inactive = no such curve, though single readings can be large; an effect the other way counts as inactive or inconclusive.
Legend:
[1] = BET inhibitor-based combinations targeting novel dependencies in MECOM-rearranged (r) AML: MV-4-11 cell line (AID 2202233); conditions: MV-4-11 AML viability, CellTiter-Glo luminescence, 48 h; series mostly up to 46 µM; also: nearly all actives have a fitted effect of over 45% in size
How it was run: (§1)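 Activity is given as area under the curve and as Z-AUC, mean-centred within each cell line. It comes from 11-point dose curves normalized to DMSO and empty wells. CellTiter-Glo luminescence was read after 48 hr drug exposure of 500 cells/well.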

[2] = BET inhibitor-based combinations targeting novel dependencies in MECOM-rearranged (r) AML: UCSD-AML1 cell line (AID 2202235); conditions: UCSD-AML1 AML cells viability, CellTiter-Glo, 48 h; series mostly up to 46 µM; also: nearly all actives have a fitted effect of over 40% in size
How it was run: as §1

[3] = BET inhibitor-based combinations targeting novel dependencies in MECOM-rearranged (r) AML: AML-191 cell line (AID 2202236; also: nearly all actives have a fitted effect of over 35% in size)
How it was run: (§2)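 Cells were plated at 500 per well and exposed to an 11-point dose series of each drug for 48 hr. Viability was measured by CellTiter-Glo luminescence, normalized to DMSO and empty-well controls, and summarized as AUC and per-cell-line Z-AUC.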

[4] = BET inhibitor-based combinations targeting novel dependencies in MECOM-rearranged (r) AML: AML-194 cell line (AID 2202237; also: nearly all actives have a fitted effect of over 40% in size)
How it was run: as §2

[5] = BET inhibitor-based combinations targeting novel dependencies in MECOM-rearranged (r) AML: HNT-34 cell line (AID 2202234); also: nearly all actives have a fitted effect of over 35% in size
How it was run: as §1
Potency is read from the fitted curve at half-maximal effect; tags tell the direction and shape of the fitted curve.

COc1ncc(Nc2ncc(C(C)N3CCN(S(C)(=O)=O)CC3)cc2-c2nc(C)nc(N)n2)cc1F (stereo unspecified)
Potency [1]: inconclusive [inhibitor, partial curve, poor fit]
Potency [2]: inconclusive [inhibitor, full curve, poor fit]
Potency [3]: inconclusive [inhibitor, partial curve]

O=C(CCCCCCC(=O)Nc1cccnc1)NO
Potency [1]: active: 2.35 µM
Potency [2]: active: 7.42 µM
Potency [4]: active: 8.33 µM

Cc1c(F)cc(C(=O)NC2CC2)cc1-c1ccc(C(=O)NCC(C)(C)C)cn1
Potency [1]: inactive
Potency [2]: inactive

C[C@@H]1CN(Cc2ccc(F)cc2)[C@@H](C)CN1C(=O)c1cc2c(C(=O)C(=O)N(C)C)cn(C)c2cc1Cl
Potency [1]: inconclusive [inhibitor, partial curve, poor fit]
Potency [2]: inactive
Potency [3]: inconclusive [inhibitor, partial curve, poor fit]

CC[C@H](NC(=O)[C@H](CS(=O)(=O)CC1CC1)N[C@@H](c1ccc(F)cc1)C(F)(F)F)C(=O)C(=O)NC1CC1
Potency [1]: inconclusive [inhibitor, partial curve, poor fit]
Potency [2]: inactive
Potency [4]: inactive

CN1CCN(c2ccc3nc(-c4cc(C(C)(C)C)c(OCCCC(=O)NCCCN=[N+]=[N-])c(C(C)(C)C)c4)[nH]c3c2)CC1
Potency [1]: active: 7.42 µM
Potency [2]: inconclusive [inhibitor, single point]
Potency [4]: active: 8.33 µM

CC(C)(Sc1cc(C(C)(C)C)c(O)c(C(C)(C)C)c1)Sc1cc(C(C)(C)C)c(O)c(C(C)(C)C)c1
Potency [1]: inactive
Potency [5]: inactive
Potency [3]: inconclusive [inhibitor, full curve, poor fit]
Potency [4]: active: 13.2 µM

CCS(=O)(=O)Nc1ccc(Oc2ccc(F)cc2F)c(-c2cn(C)c(=O)c3[nH]ccc23)c1
Potency [5]: active: 0.0742 µM

COc1ccc([C@@H]2CC(=O)c3c(O)cc(O[C@@H]4O[C@H](CO[C@@H]5O[C@@H](C)[C@H](O)[C@@H](O)[C@H]5O)[C@@H](O)[C@H](O)[C@H]4O)cc3O2)cc1O
Potency [1]: inactive
Potency [3]: inactive

O=C(Nc1c(Cl)cncc1Cl)c1ccc(OC(F)F)c(OCC2CC2)c1
Potency [5]: inactive

COc1cc(OC)c(C(=O)CCCN2CCCC2)c(OC)c1
Potency [5]: inconclusive [inhibitor, partial curve, poor fit]

CC1(C)O[C@@H]2C[C@H]3[C@@H]4C[C@H](F)C5=CC(=O)C=C[C@]5(C)[C@H]4[C@@H](O)C[C@]3(C)[C@]2(C(=O)CO)O1
Potency [1]: inactive
Potency [3]: inconclusive [inhibitor, full curve, poor fit]
Potency [4]: inactive

CN1CCN(c2ccc(OC(F)(F)F)c(Nc3ncc4c(n3)-c3c(c(C(N)=O)nn3CCO)CC4)c2)CC1
Potency [5]: inconclusive [inhibitor, full curve]

O=C(NC[C@H](O)CN1CCc2ccccc2C1)c1ccnc(NC2CCC2)c1
Potency [1]: inconclusive [inhibitor, full curve, poor fit]
Potency [3]: inactive
Potency [4]: inconclusive [inhibitor, full curve, poor fit]

CC(=O)Nc1cc(Oc2ccc3c(nc(Nc4ccc(F)cc4F)n3C)c2C)ccn1
Potency [1]: inconclusive [inhibitor, partial curve]
Potency [3]: inconclusive [inhibitor, full curve]
Potency [4]: inconclusive [inhibitor, full curve]

CC1=C(C)C(=O)C(C(CCCCCC(=O)O)c2ccccc2)=C(C)C1=O (stereo unspecified)
Potency [5]: inconclusive [inhibitor, single point]

N[C@@H](Cc1c[nH]c2ccc(O)cc12)C(=O)O
Potency [5]: inconclusive [inhibitor, single point]

CCc1cc2c(c(OCC(F)(F)F)c(C(=O)NC3CCN(C(=O)CO)CC3)n2C)c(=O)n1CC(=O)c1ccccc1
Potency [1]: inactive
Potency [3]: inactive

CC[C@]12C=CCN3CC[C@@]4(c5cc([C@@]6(C(=O)OC)C[C@H]7C[C@@H](C(C)(F)F)CN(Cc8c6[nH]c6ccccc86)C7)c(OC)cc5N(C)[C@H]4[C@@](O)(C(=O)OC)[C@@H]1OC(C)=O)[C@@H]32
Potency [5]: inconclusive [inhibitor, full curve]

From PubChem BioAssay (NCATS)
